Measurements taken from PubChem BioAssay AID602329 (Broad Institute, 2012).
The campaign covered roughly 360,000 compounds. About 510 (0.14%) were called active. The inconclusive results got no clear call from the source; some entries with a clear call stand among them for comparison.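 How the source made its calls: active means mean normalized replicate activity at least 40 and at least half of replicates scoring 40 or more; inconclusive means only one of the two criteria met; inactive means mean below 40 and under half of replicates reaching 40.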

These molecules were tested against DNA repair and recombination protein RAD54-like (Homo sapiens) (UniProt Q92698) (assay: RAD54 Holliday junction migration blockers – biochemical, fluorescence, single point, primary screen (AID 602329;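 further: 0% = median of neutral control wells and 100% = median of positive control wells; inhibitors cause a drop in the FAM fluorescence signal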)). Details: RAD54 Holliday junction branch migration, FAM/BHQ fluorescence; at 10.4 µM; hits give high values.
Sequence of UniProt Q92698 (Q92698 whole entry, looked up): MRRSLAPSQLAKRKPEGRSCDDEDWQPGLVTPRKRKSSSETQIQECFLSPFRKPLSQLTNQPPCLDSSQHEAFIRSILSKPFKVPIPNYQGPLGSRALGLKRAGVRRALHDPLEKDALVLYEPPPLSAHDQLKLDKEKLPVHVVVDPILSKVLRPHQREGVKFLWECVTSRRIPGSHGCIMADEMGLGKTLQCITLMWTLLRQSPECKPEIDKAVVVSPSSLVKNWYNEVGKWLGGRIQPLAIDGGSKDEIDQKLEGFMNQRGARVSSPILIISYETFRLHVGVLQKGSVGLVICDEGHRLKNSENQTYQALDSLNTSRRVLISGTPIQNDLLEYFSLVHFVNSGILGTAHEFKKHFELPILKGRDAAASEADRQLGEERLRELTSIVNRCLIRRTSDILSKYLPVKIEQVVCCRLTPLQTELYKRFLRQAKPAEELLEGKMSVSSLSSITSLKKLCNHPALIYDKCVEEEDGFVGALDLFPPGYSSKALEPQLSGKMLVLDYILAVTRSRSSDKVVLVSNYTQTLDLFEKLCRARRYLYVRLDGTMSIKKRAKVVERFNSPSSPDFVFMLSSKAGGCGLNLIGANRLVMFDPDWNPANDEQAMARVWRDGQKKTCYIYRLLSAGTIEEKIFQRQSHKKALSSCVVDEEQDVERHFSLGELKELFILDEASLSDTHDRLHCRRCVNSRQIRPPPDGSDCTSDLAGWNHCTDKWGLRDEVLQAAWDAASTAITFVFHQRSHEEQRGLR
In the case of `Cc1noc(C)c1NC(=O)N(C)C[C@H]1Oc2c(NC(=O)Nc3ccc(C(F)(F)F)cc3)cccc2C(=O)N([C@@H](C)CO)C[C@H]1C`, the inhibition is reported as inconclusive: 19.7%.
In the case of `CCN(CC)CCNC(=O)c1cc2c(=O)n(C)c3ccccc3c2s1`, the inhibition is reported as active: 61.9%.
For `CCN1CCCC1CNC(=O)c1ccc2c(c1)NC(=O)/C(=C\c1ccccc1F)S2` (stereo not drawn), the inhibition was inconclusive: 41.7%.
In the case of `CCOC(=O)c1cnc2c(C)cc(Cl)cc2c1NCCCN1CCOCC1`, the inhibition is reported as active: 57%.
`O=c1c2ccccc2oc2ccc(NCCCN3CCOCC3)cc12` was tested, and the inhibition was inconclusive: 40.4%.
In the case of `COc1cc(NC(=O)c2cccnc2Sc2ccc(C)c(C)c2)cc(OC)c1OC`, the inhibition is reported as inconclusive: 32.5%.
In the case of `Brc1ccc2c(c1)-c1ccccc1C1=NCCN12`, the inhibition is reported as active: 80.6%.
`Cc1ccc2nc3c(cc(C(=O)NCCN4CCOCC4)c(=N)n3CCCN3CCOCC3)c(=O)n2c1` was tested, and the inhibition was active: 65.9%.
In the case of `CCc1ccc2nc3nc(C)cc(C)c3c(N)c2c1`, the inhibition is reported as active: 87.6%.
With `Cc1cc(C)c(NC(=O)Cn2c(=O)c3cccn3c3ccccc32)c(C)c1` the inhibition was inactive: 10.4%.
`CCN(CC)CCN1C(=O)c2cccc3cc(N)cc(c23)C1=O` was tested, and the inhibition was inconclusive: 34.7%.
With `OCCN1CCN(c2ncnc3sc(-c4ccccc4)cc23)CC1` the inhibition was inconclusive: 43.1%.
In the case of `CCCN(CCC)CCCNC(=S)Nc1ccc2nc(N3CCN(C)CC3)cc(C)c2c1`, the inhibition is reported as active: 62.7%.
`C[C@H]1CCCCO[C@@H](CN(C)C(=O)Nc2ccc3c(c2)OCO3)[C@@H](C)CN([C@@H](C)CO)C(=O)c2cc(NC(=O)Nc3ccc(C(F)(F)F)cc3)ccc2O1` was tested, and the inhibition was inconclusive: 35.7%.
With `CC(=O)Nc1ccc(NC(=O)c2ccc(NS(=O)(=O)c3cc(C(C)(C)C)cc(C)c3C)cc2)cc1` the inhibition was inactive: 5.45%.
In the case of `c1ccc(-c2nnc(SCc3nc4ccccc4[nH]3)o2)cc1`, the inhibition is reported as inconclusive: 15.7%.
With `Cc1ccc(-c2csc3nc4c5ccccc5c(NCCCN(C)C)nn4c(=O)c23)cc1` the inhibition was active: 53.1%.
For `Cn1nc(-c2ccccc2)cc1NS(=O)(=O)c1ccc(C#N)cc1`, the inhibition was inconclusive: 38.2%.
In the case of `Oc1ccc(Nc2nc(N3CCCC3)c3ccccc3n2)cc1`, the inhibition is reported as active: 59.7%.
In the case of `Oc1ccc(/C=N/Nc2nc(-c3cccnc3)nc3ccccc23)c(O)c1`, the inhibition is reported as inconclusive: 48.2%.
With `Cc1ccnc(Nc2nc(-c3sc(C)nc3C)cs2)c1` the inhibition was inconclusive: 28.9%.
For `O=S1(=O)C=C(Sc2nc3cc(Cl)ccc3o2)c2ccccc21`, the inhibition was inconclusive: 44.1%.
In the case of `Cc1c(Cl)ccc(S(=O)(=O)NCCCn2ccnc2)c1Cl`, the inhibition is reported as inconclusive: 49.8%.
In the case of `COc1ccc(-c2ccc3c(c2)[C@H]2[C@H](CCN2C(=O)Cc2cccnc2)[C@H](CO)N3C)cc1`, the inhibition is reported as inconclusive: 48.6%.
For `CN(C)CCNC(=O)c1cc2c(s1)-c1ccc(Cl)cc1SC2`, the inhibition was active: 56.7%.
With `Cn1c(C(=O)NCCCN2CCOCC2)cc2c(=O)n(C)c3ccccc3c21` the inhibition was inconclusive: 46.1%.
In the case of `O=C(Nc1ccc(C2=NCCN2)cc1)c1ccc(C(=O)Nc2ccc(C3=NCCN3)cc2)c(Cl)c1`, the inhibition is reported as inconclusive: 49.2%.
`CCOC(=O)c1c(NC(C)=O)sc2c(O)c(CN3CCN(CC)CC3)ccc12` was tested, and the inhibition was active: 62.1%.
For `CN(C)CCCN(C(=O)c1ccco1)c1nc(-c2ccc(Cl)cc2)cs1`, the inhibition was active: 53%.
With `CCOC(=O)c1c(C)n(-c2ccc(OC)cc2)c2ccc(O)c(CN(C)C)c12` the inhibition was inconclusive: 45.4%.
For `CCOC(=O)c1cnc2ccc(C)cc2c1NCCN1CCOCC1`, the inhibition was inconclusive: 43.3%.
In the case of `Cc1ccc(Nc2cc(C)nc3c(C)cccc23)cc1`, the inhibition is reported as inconclusive: 47.6%.
For `Cc1cc(C)n(-c2nc(NCCN(C)C)c3c4c(sc3n2)COC(C)(C)C4)n1`, the inhibition was inconclusive: 33.2%.
With `CCN1/C(=C/C=C/c2sc3ccccc3[n+]2CC)Sc2ccccc21` the inhibition was inconclusive: 48.5%.
`O=C(COc1ccc(F)cc1)Nc1cc(Cl)ccc1-n1cncn1` was tested, and the inhibition was inactive: 6.62%.
In the case of `O=C(Nc1cccc(F)c1)N1CCCCN2[C@@H](CO)[C@@H](c3ccc(C#Cc4ccccc4)cc3)[C@@H]2C1`, the inhibition is reported as inactive: 6.67%.
`Cc1ccc(-c2nc(NCCN3CCOCC3)c3ccccc3n2)cc1` was tested, and the inhibition was inconclusive: 47%.
For `Cc1sc(NC(=O)CN2CCOCC2)nc1-c1ccc2c(c1)CCN2S(=O)(=O)c1ccccc1`, the inhibition was inactive: -4.16%.
For `O=C(N[C@H]1C=C[C@@H](CC(=O)N2CCN(c3ccccc3)CC2)O[C@H]1CO)c1ccccc1`, the inhibition was inactive: -14.2%.
With `N#CC1=C(N)Oc2n[nH]c(-c3ccccc3)c2C1c1cccnc1` (stereo not drawn) the inhibition was inactive: 6.48%.
For `Cc1cc(C(=O)Nc2cccc3c2O[C@H](CN(C)Cc2ccc(C(F)(F)F)cc2)[C@@H](C)CN([C@H](C)CO)C3=O)n(C)n1`, the inhibition was inconclusive: 38%.
For `COc1ccc(C(=O)Nc2ccc3ccccc3n2)c(OC)c1OC`, the inhibition was inactive: -5.26%.
With `Cc1ccc(NC(=O)[C@H](CC(C)C)NC(=O)[C@@H]2Cc3ccccc3CN2)cc1` the inhibition was inactive: -5.86%.
`O=c1cc(CSc2n[nH]c(=O)n2C2CC2)c2ccc(O)cc2o1` was tested, and the inhibition was inconclusive: 30.3%.
In the case of `OCCN1CCN(CCCN2c3ccccc3Sc3ccc(C(F)(F)F)cc32)CC1`, the inhibition is reported as inconclusive: 25%.
For `CCOC(=O)C1C(=O)NC(N2CCN(c3ccccc3)CC2)=NC1c1ccco1` (stereo not drawn), the inhibition was inconclusive: 38.1%.
For `CCN(CC)CC(=O)Nc1cc(N(C)C)nc2ccccc12`, the inhibition was active: 51.3%.
`C[C@H]1CN([C@@H](C)CO)C(=O)c2cc(NS(=O)(=O)c3cccs3)ccc2O[C@@H]1CN(C)C(=O)Nc1cccc2ccccc12` was tested, and the inhibition was inconclusive: 25.9%.
In the case of `CCOC(=O)c1c(C)n(C)c2ccc(OCC(O)CN3CCN(C)CC3)cc12` (stereo not drawn), the inhibition is reported as inconclusive: 49.1%.
With `COc1ccc(Oc2ccc(N/C=C3/CCCC3=O)cc2)cc1` the inhibition was inconclusive: 23.6%.
With `CC(Oc1ccc2c(c1)c1ccnc3c4ccccc4c(=O)n2c13)C(=O)NCCN1CCOCC1` (stereo not drawn) the inhibition was active: 88.8%.
With `N/C(=N\OC(=O)c1ccc(Cl)c(Cl)c1)c1ccccn1` the inhibition was inactive: -3.94%.
With `CCN1CCc2c(sc(NC(=O)c3ccc(C(=O)c4ccccc4)cc3)c2C(N)=O)C1` the inhibition was inconclusive: 44%.
In the case of `O=C(Nc1nnc(COc2ccc(F)cc2)s1)c1ccco1`, the inhibition is reported as inconclusive: 27.7%.
With `C[C@H](CO)N1C[C@H](C)[C@H](CN(C)S(C)(=O)=O)Oc2ccc(NC(=O)CCCCCC(=O)Nc3ccccc3N)cc2CC1=O` the inhibition was inactive: 4.74%.
In the case of `Cc1ccc(S(=O)(=O)NCCCNS(=O)(=O)c2ccccc2[N+](=O)[O-])cc1`, the inhibition is reported as inconclusive: 23.8%.
`Cc1ccc(S(=O)(=O)N(C)C[C@@H]2Oc3ccc(NC(=O)NC(C)C)cc3C(=O)N([C@H](C)CO)C[C@H]2C)cc1` was tested, and the inhibition was inconclusive: 46.7%.
For `CCCc1nc2c(=O)n(C)c(=O)nc-2n(C)n1`, the inhibition was active: 74.2%.
For `c1ccc(-c2nc(NCCCN3CCOCC3)c3ccccc3n2)cc1`, the inhibition was inconclusive: 48.4%.
For `CSc1ccc(CCNC(=O)C2CCCN(c3ncnc4c3nc3n4CCCCC3)C2)cc1` (stereo not drawn), the inhibition was inactive: 1.8%.
In the case of `COc1cccc(-c2nn(C)c3sc(C(=O)NCc4ccccn4)cc23)c1`, the inhibition is reported as inactive: 6.6%.
`CN(C)C(=O)c1ccc(-c2ccc3c(c2)[C@H]2[C@H](CCN2C(=O)c2ccccc2F)[C@H](CO)N3)cc1` was tested, and the inhibition was inactive: -9.49%.
For `CCN1CCN(c2nc(N)c([N+](=O)[O-])c(Nc3cccc(C)c3)n2)CC1`, the inhibition was inconclusive: 48%.
In the case of `CC(C)c1ccc(-c2nc(N3CCCC3)nc3n[nH]c(N)c23)cc1`, the inhibition is reported as inactive: -8.67%.
With `Cc1cccc(C)c1N=Nc1c(C)cc(O)cc1C` the inhibition was inactive: 4.46%.
For `CC(N)c1csc(Nc2nncc3ccccc23)n1` (stereo not drawn), the inhibition was active: 70.2%.
For `CCCN(CCC)CCCNC(=O)c1cc2c(=O)n(C)c3ccccc3c2n1C`, the inhibition was inconclusive: 49.8%.
In the case of `Cc1ccc(NC(=S)N(C)N)cc1Cl`, the inhibition is reported as inactive: 3.64%.
For `COc1ccccc1NS(=O)(=O)c1cc(N/C(=N/S(=O)(=O)c2ccccc2)c2ccc(F)cc2)ccc1Cl`, the inhibition was inactive: -3.17%.
With `COc1ccc(CCNC(=O)c2cc3c(=O)n4ccccc4nc3n(CCCN3CCOCC3)c2=N)cc1OC` the inhibition was inconclusive: 46.1%.
In the case of `Cc1[nH]ccc2c1[nH]c1cc(=O)ccc12`, the inhibition is reported as active: 68.4%.
With `CO[C@@H]1CN(C)C(=O)c2ccc(NC(C)=O)cc2OC[C@@H](C)N(C(=O)c2ccccn2)C[C@H]1C` the inhibition was inconclusive: 31.3%.
In the case of `COc1ccccc1C(=O)C(O)c1ccccc1OC` (stereo not drawn), the inhibition is reported as inconclusive: 43.6%.
In the case of `COc1cccc2sc3ccc(C#CC4(N)CCCCC4)cc3c(=O)c12`, the inhibition is reported as inconclusive: 31.6%.
With `COc1ccc(OCc2cc(C(=O)N3CCN(C4CCCC4)CC3)no2)c(Cl)c1` the inhibition was inactive: -11.8%.
In the case of `Cc1ccc2nc(CSc3nc(C)ccc3C#N)[nH]c2c1`, the inhibition is reported as inactive: -3.68%.
In the case of `Cc1c(CCOC(=O)c2cc([N+](=O)[O-])cc([N+](=O)[O-])c2)sc[n+]1CC(=O)c1ccccc1`, the inhibition is reported as inconclusive: 44.7%.
In the case of `COc1ccc(Cl)c2sc(N(CCN(C)C)C(=O)C3=COCCO3)nc12`, the inhibition is reported as inconclusive: 37.8%.
With `c1ccc2c(c1)[nH]c1c(N3CCN(C4CCCCC4)CC3)ncnc12` the inhibition was inconclusive: 41.9%.
For `CCCNc1nc2nc3ccccn3c(=O)c2cc1C(=O)NCCN1CCOCC1`, the inhibition was inconclusive: 47.4%.
For `CCCCCCCCCCCCCCCC[N+](C)(C)CCN(Cc1ccc(OC)cc1)c1ncccn1`, the inhibition was inconclusive: 49.9%.
In the case of `CN1CCN(c2nc(-c3cccs3)nc3ccccc23)CC1`, the inhibition is reported as active: 71.2%.
`COC(=O)c1c(NC(=O)c2ccc([N+](=O)[O-])o2)sc2c1CCN(C(C)C)C2` was tested, and the inhibition was active: 68%.
